Assay results taken from PubChem BioAssay AID1814 (Broad Institute, 2009).
About 22,000 (7.3%) of roughly 300,000 compounds were called active. Inconclusive means that the source gave no clear call. Such entries were picked first, then a sample of the others. Rule as the data show it: active = activity score below about -60%; inconclusive = mostly about -28% to -61%; inactive = positive scores.

Assay: Activators via SNCA 5'UTR binding, MLPCN (AID 1814)
Settings: alpha-synuclein 5'UTR reporter, activators screen; active compounds read low; tested at 7.5 µM

| SMILES | activity score |
| --- | --- |
| C/C(=N\Nc1ccc2nncn2n1)c1ccccn1 | inactive: 93.9% |
| Cn1c(=O)[nH]c(=O)c2c1nc([N+](=O)[O-])n2Cc1ccccc1 | inconclusive: -41.7% |
| N=c1ccn(CC(=O)c2ccc(-c3ccccc3)cc2)cc1 | inactive: 110% |
| COc1ccc(-c2nc3ccc(N4CCCC4)cc3c(=O)[nH]2)cc1OC | inconclusive: -49.8% |
| CCOC(=O)CNC(=O)c1ccc(C)cc1 | inconclusive: -41.4% |
| O=C(Nc1ccc([N+](=O)[O-])cc1)c1ccc(Cn2cc([N+](=O)[O-])cn2)cc1 | inactive: 78.6% |
| O=C(C[n+]1cccc(CNC(=O)c2ccc(OC(F)F)cc2)c1)Nc1ccc(SC(F)F)cc1 | inconclusive: -41.7% |
| O=c1c2ccccc2nc(SCCN2CCOCC2)n1CCc1ccccc1 | inconclusive: -61.1% |
| COc1ccc(Cc2c(O)nc(SCC(=O)c3ccc(OC)cc3)[nH]c2=O)cc1 | inconclusive: -49.3% |
| CCOc1c2ccc(C(=O)NCC34CC5CC(CC(C5)C3)C4)cc2nn1CC | inconclusive: -42.3% |
| Cn1cc([N+](=O)[O-])c(C(=O)Nc2sc3c(c2C#N)CCC3)n1 | inactive: 64.2% |
| CSc1cccc(NC(=O)c2ccc(CN3CCc4ccccc4C3)cc2)c1 | inconclusive: -55.7% |
| COc1cc2c(cc1OC)-c1c(OC)c(OC)cc3ccnc(c13)C2=O | inactive: 110% |
| Cc1ccc(-c2cc(C(=O)N/N=C/c3c(C)nn(-c4ccccc4)c3C)[nH]n2)cc1 | inactive: 66.1% |
| COc1cccc(N2CCN(C(=O)c3ccc(CS(=O)c4ccc(C)cc4)o3)CC2)c1 (configuration not stated) | inactive: 96.6% |
| Cc1cc(NC(=O)c2ccccc2F)on1 | inconclusive: -43.7% |
| O=C(Nc1nc2cc3c(cc2s1)OCCO3)c1ccco1 | inactive: 65.6% |
| CC(C)c1ccc(CNc2ccc(N3CCOCC3)cc2)cc1 | inconclusive: -56.3% |
| Cn1c(=N)n(CC(=O)c2ccc(Cl)c(Cl)c2)c2ccccc21 | inactive: 80.8% |
| O=C(Cc1cccs1)N/N=C/c1ccco1 | inconclusive: -55.7% |
| COc1ccc(/C=C2\N=C3CCCN3C2=O)cc1 | inconclusive: -52% |

| SMILES | activity score |
| --- | --- |
| CCN(CC)c1ccc(/C=N/Nc2nc(C)cc(=O)[nH]2)c(O)c1 | inactive: 95.4% |
| Cc1sc2nc(COC(=O)CNC(=O)c3ccc(C(C)(C)C)cc3)[nH]c(=O)c2c1C | inconclusive: -45.7% |
| c1cc2c(cc1C1=NNC(=NC3CC3)SC1)OCCO2 | inactive: 111% |
| O=C(c1cc(COc2c(F)cccc2F)on1)N1CCC(c2ccccc2Cl)C1 (configuration not stated) | inconclusive: -60.8% |
| O=C1C(Br)=Cc2cccc3cccc1c23 | inconclusive: -53.3% |
| Cc1ccc(/C=N/NC(=O)Cc2ccc(Cl)cc2)c(O)c1 | inactive: 66.4% |
| CCOC(=O)CNC(=O)c1ccc2c(c1)OCCO2 | active: -64.5% |
| CC(=O)Cc1nsc(NC(=O)c2cccc(F)c2)n1 | inconclusive: -54.8% |
| CC#CCCCC(=O)Nc1cc(OC)nc(OC)n1 | inconclusive: -37.5% |
| COc1cc(SC)ccc1C(=O)NCC1CCCCC1 | active: -67.2% |
| CCC(=O)NC(c1cccs1)c1cc(Cl)c2cccnc2c1O (configuration not stated) | inactive: 86.2% |
| COc1cc2[nH]c(C(=O)Nc3ccc4c(c3)OCCO4)cc2c(OC)c1OC | inconclusive: -52.1% |
| Cc1cc(C(=O)COc2ccccc2C(N)=O)c(C)n1C1CC1 | active: -76.2% |
| COc1ccc(C(=O)Nc2ccc(S(=O)(=O)N3CCc4ccccc43)cc2)cc1 | inconclusive: -51.5% |
| O=C(Nc1ccccc1Cl)c1ccc2nccnc2c1 | active: -96.4% |
| Cc1nn(-c2ccccc2)c(C)c1/C=N/NC(=O)c1cc(-c2ccccc2)n[nH]1 | inactive: 82.1% |
| Cc1[nH]c2ccccc2c1-c1nc2ccccc2[nH]c1=O | active: -62.8% |
| COc1ccc2nc(C)cc(N/N=C/c3cccc(OC)c3O)c2c1 | inactive: 99.8% |
| COc1ccc2c(C(=O)CN3CCN(CCO)CC3)c[nH]c2c1 | inconclusive: -58.8% |
| Cc1cc(=O)[nH]c(SCC(=O)Nc2ccc3c(c2)OCCO3)n1 | inconclusive: -32.3% |
| COc1cccc(-n2c(C)n[nH]c2=O)c1 | inconclusive: -40.6% |
